# From the supplement of paper PMC8728848
# Some of the results follow.
# How the values were obtained:
# Test in all cases: glycan array binding signal (z-score within array); higher = stronger binding
# Conditions in all cases: glycan notation: IUPAC condensed, linker removed
# [1] = target: GlcNAc(a1-3)Gal(b1-4)GlcNAc
# Method in brief: (§1)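 From the Consortium for Functional Glycomics database, 3228 arrays were curated, keeping only those whose protein sequence was available. Binding is given as a within-array Z-score averaged across arrays sharing a protein sequence and across linkers. Negative Z-scores can be read as non-binding.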
# [2] = target: GlcNAc(a1-4)Gal(b1-3)GlcNAc
# Method in brief: as §1
# [3] = target: GlcNAc(a1-4)Gal(b1-4)GalNAc
# Method in brief: as §1
# [4] = target: GlcNAc(a1-4)Gal(b1-4)GlcNAc
# Method in brief: as §1
# [5] = target: GlcNAc(a1-4)Gal(b1-4)GlcNAc(b1-3)Gal(b1-4)Glc
# Method in brief: as §1
# [6] = target: GlcNAc(a1-4)Gal(b1-4)GlcNAc(b1-3)Gal(b1-4)GlcNAc
# Method in brief: as §1
# [7] = target: GlcNAc(a1-4)Gal(b1-4)GlcNAc(b1-3)Gal(b1-4)GlcNAc(b1-3)Gal(b1-4)GlcNAc
# Method in brief: as §1
# [8] = target: GlcNAc(a1-4)Gal(b1-4)GlcNAc(b1-3)Gal(b1-4)[Fuc(a1-3)]GlcNAc(b1-3)Gal(b1-4)[Fuc(a1-3)]GlcNAc
# Method in brief: as §1
# [9] = target: GlcNAc(a1-6)Gal(b1-4)GlcNAc
# Method in brief: as §1
# [10] = target: GlcNAc(b1-2)Gal(b1-3)GalNAc
# Method in brief: as §1
# [11] = target: GlcNAc(b1-2)Man(a1-3)[GlcNAc(b1-2)Man(a1-6)]Man(b1-4)GlcNAc(b1-4)GlcNAc
# Method in brief: as §1
# [12] = target: GlcNAc(b1-2)Man(a1-3)[GlcNAc(b1-2)Man(a1-6)]Man(b1-4)GlcNAc(b1-4)[Fuc(a1-6)]GlcNAc
# Method in brief: as §1
# [13] = target: GlcNAc(b1-2)Man(a1-3)[GlcNAc(b1-4)][GlcNAc(b1-2)Man(a1-6)]Man(b1-4)GlcNAc(b1-4)GlcNAc
# Method in brief: as §1
# [14] = target: GlcNAc(b1-2)Man(a1-3)[GlcNAc(b1-4)][GlcNAc(b1-2)Man(a1-6)]Man(b1-4)GlcNAc(b1-4)[Fuc(a1-6)]GlcNAc
# Method in brief: as §1
# [15] = target: GlcNAc(b1-2)[GlcNAc(b1-4)]Man(a1-3)[GlcNAc(b1-2)Man(a1-6)]Man(b1-4)GlcNAc(b1-4)GlcNAc
# Method in brief: as §1
# [16] = target: GlcNAc(b1-2)[GlcNAc(b1-4)]Man(a1-3)[GlcNAc(b1-4)][GlcNAc(b1-2)Man(a1-6)]Man(b1-4)GlcNAc(b1-4)GlcNAc
# Method in brief: as §1
# [17] = target: GlcNAc(b1-2)[GlcNAc(b1-4)]Man(a1-3)[GlcNAc(b1-4)][GlcNAc(b1-2)[GlcNAc(b1-6)]Man(a1-6)]Man(b1-4)GlcNAc(b1-4)GlcNAc
# Method in brief: as §1
# [18] = target: GlcNAc(b1-2)[GlcNAc(b1-4)]Man(a1-3)[GlcNAc(b1-4)][GlcNAc(b1-2)[GlcNAc(b1-6)]Man(a1-6)]Man(b1-4)GlcNAc(b1-4)[Fuc(a1-6)]GlcNAc
# Method in brief: as §1
# [19] = target: GlcNAc(b1-2)[GlcNAc(b1-6)]Man(a1-6)[GlcNAc(b1-2)Man(a1-3)]Man(b1-4)GlcNAc(b1-4)GlcNAc
# Method in brief: as §1
# [20] = target: GlcNAc(b1-2)[GlcNAc(b1-6)]Man(a1-6)[GlcNAc(b1-2)Man(a1-3)]Man(b1-4)GlcNAc(b1-4)[Fuc(a1-6)]GlcNAc
# Method in brief: as §1
# [21] = target: GlcNAc(b1-2)[GlcNAc(b1-6)]Man(a1-6)[GlcNAc(b1-4)][GlcNAc(b1-2)Man(a1-3)]Man(b1-4)GlcNAc(b1-4)GlcNAc
# Method in brief: as §1
# GlcNAc(b1-3)Fuc = target: GlcNAc(b1-3)Fuc
# Method in brief: as §1
# GlcNAc(b1-3)Gal = target: GlcNAc(b1-3)Gal
# Method in brief: as §1
# [22] = target: GlcNAc(b1-3)Gal(b1-3)GalNAc
# Method in brief: as §1
# GlcNAc(b1-3)Gal(b1-4)Glc = target: GlcNAc(b1-3)Gal(b1-4)Glc
# Method in brief: as §1
# [23] = target: GlcNAc(b1-3)Gal(b1-4)GlcNAc
# Method in brief: as §1
# [24] = target: GlcNAc(b1-3)Gal(b1-4)GlcNAc(b1-2)Man(a1-3)[GlcNAc(b1-3)Gal(b1-4)GlcNAc(b1-2)Man(a1-6)]Man(b1-4)GlcNAc(b1-4)GlcNAc
# Method in brief: as §1
# [25] = target: GlcNAc(b1-3)Gal(b1-4)GlcNAc(b1-2)Man(a1-3)[GlcNAc(b1-3)Gal(b1-4)GlcNAc(b1-2)Man(a1-6)]Man(b1-4)GlcNAc(b1-4)[Fuc(a1-6)]GlcNAc
# Method in brief: as §1
# [26] = target: GlcNAc(b1-3)Gal(b1-4)GlcNAc(b1-2)[GlcNAc(b1-3)Gal(b1-4)GlcNAc(b1-6)]Man(a1-6)[GlcNAc(b1-3)Gal(b1-4)GlcNAc(b1-2)Man(a1-3)]Man(b1-4)GlcNAc(b1-4)GlcNAc
# Method in brief: as §1
# [27] = target: GlcNAc(b1-3)Gal(b1-4)GlcNAc(b1-3)Gal(b1-4)GlcNAc
# Method in brief: as §1
# [28] = target: GlcNAc(b1-3)Gal(b1-4)GlcNAc(b1-3)Gal(b1-4)GlcNAc(b1-2)Man(a1-3)[GlcNAc(b1-3)Gal(b1-4)GlcNAc(b1-3)Gal(b1-4)GlcNAc(b1-2)Man(a1-6)]Man(b1-4)GlcNAc(b1-4)GlcNAc
# Method in brief: as §1
# [29] = target: GlcNAc(b1-3)Gal(b1-4)GlcNAc(b1-3)Gal(b1-4)GlcNAc(b1-2)Man(a1-3)[GlcNAc(b1-3)Gal(b1-4)GlcNAc(b1-3)Gal(b1-4)GlcNAc(b1-2)Man(a1-6)]Man(b1-4)GlcNAc(b1-4)[Fuc(a1-6)]GlcNAc
# Method in brief: as §1
# [30] = target: GlcNAc(b1-3)Gal(b1-4)GlcNAc(b1-3)Gal(b1-4)GlcNAc(b1-2)[GlcNAc(b1-3)Gal(b1-4)GlcNAc(b1-3)Gal(b1-4)GlcNAc(b1-6)]Man(a1-6)[GlcNAc(b1-3)Gal(b1-4)GlcNAc(b1-3)Gal(b1-4)GlcNAc(b1-2)Man(a1-3)]Man(b1-4)GlcNAc(b1-4)[Fuc(a1-6)]GlcNAc
# Method in brief: as §1
# [31] = target: GlcNAc(b1-3)Gal(b1-4)GlcNAc(b1-3)Gal(b1-4)GlcNAc(b1-3)Gal(b1-4)GlcNAc(b1-2)Man(a1-3)[GlcNAc(b1-3)Gal(b1-4)GlcNAc(b1-3)Gal(b1-4)GlcNAc(b1-3)Gal(b1-4)GlcNAc(b1-2)Man(a1-6)]Man(b1-4)GlcNAc(b1-4)GlcNAc
# Method in brief: as §1
# [32] = target: GlcNAc(b1-3)Gal(b1-4)GlcNAc(b1-3)Gal(b1-4)GlcNAc(b1-3)Gal(b1-4)GlcNAc(b1-2)Man(a1-3)[GlcNAc(b1-3)Gal(b1-4)GlcNAc(b1-3)Gal(b1-4)GlcNAc(b1-3)Gal(b1-4)GlcNAc(b1-2)Man(a1-6)]Man(b1-4)GlcNAc(b1-4)[Fuc(a1-6)]GlcNAc
# Method in brief: as §1
# [33] = target: GlcNAc(b1-3)Gal(b1-4)GlcNAc(b1-3)Gal(b1-4)GlcNAc(b1-3)Gal(b1-4)GlcNAc(b1-2)[GlcNAc(b1-3)Gal(b1-4)GlcNAc(b1-3)Gal(b1-4)GlcNAc(b1-3)Gal(b1-4)GlcNAc(b1-6)]Man(a1-6)[GlcNAc(b1-3)Gal(b1-4)GlcNAc(b1-3)Gal(b1-4)GlcNAc(b1-3)Gal(b1-4)GlcNAc(b1-2)Man(a1-3)]Man(b1-4)GlcNAc(b1-4)[Fuc(a1-6)]GlcNAc
# Method in brief: as §1
# [34] = target: GlcNAc(b1-3)Gal(b1-4)GlcNAc(b1-3)Gal(b1-4)GlcNAc(b1-3)Gal(b1-4)GlcNAc(b1-3)Gal(b1-4)GlcNAc(b1-2)Man(a1-3)[GlcNAc(b1-3)Gal(b1-4)GlcNAc(b1-3)Gal(b1-4)GlcNAc(b1-3)Gal(b1-4)GlcNAc(b1-3)Gal(b1-4)GlcNAc(b1-2)Man(a1-6)]Man(b1-4)GlcNAc(b1-4)GlcNAc
# Method in brief: as §1
# [35] = target: GlcNAc(b1-3)Gal(b1-4)GlcNAc(b1-3)Gal(b1-4)GlcNAc(b1-3)Gal(b1-4)GlcNAc(b1-3)Gal(b1-4)GlcNAc(b1-2)Man(a1-3)[GlcNAc(b1-3)Gal(b1-4)GlcNAc(b1-3)Gal(b1-4)GlcNAc(b1-3)Gal(b1-4)GlcNAc(b1-3)Gal(b1-4)GlcNAc(b1-2)Man(a1-6)]Man(b1-4)GlcNAc(b1-4)[Fuc(a1-6)]GlcNAc
# Method in brief: as §1
binder,measurement,setting,value
"AT1G15820(2) (Arabidopsis thaliana), Q9LMQ2 (protein) MAMAVSGAVLSGLGSSFLTGGKRGATALASGVGTGAQRVGRKTLIVAAAAAQPKKSWIPAVKGGGNFLDPEWLDGSLPGDFGFDPLGLGKDPAFLKWYREAELIHGRWAMAAVLGIFVGQAWSGVAWFEAGAQPDAIAPFSFGSLLGTQLLLMGWVESKRWVDFFNPDSQSVEWATPWSKTAENFANYTGDQGYPGGRFFDPLGLAGKNRDGVYEPDFEKLERLKLAEIKHSRLAMVAMLIFYFEAGQGKTPLGALGL",glycan array binding signal (z-score),[1],-0.384
same,glycan array binding signal (z-score),[2],-0.396
same,glycan array binding signal (z-score),[3],0.069
same,glycan array binding signal (z-score),[4],-0.453
same,glycan array binding signal (z-score),[5],-0.626
same,glycan array binding signal (z-score),[6],-0.414
same,glycan array binding signal (z-score),[7],-0.662
same,glycan array binding signal (z-score),[8],-0.205
same,glycan array binding signal (z-score),[9],-0.013
same,glycan array binding signal (z-score),[10],0.153
same,glycan array binding signal (z-score),[11],-0.26
same,glycan array binding signal (z-score),[12],-0.271
same,glycan array binding signal (z-score),[13],-0.399
same,glycan array binding signal (z-score),[14],0.457
same,glycan array binding signal (z-score),[15],0.598
same,glycan array binding signal (z-score),[16],-0.537
same,glycan array binding signal (z-score),[17],-0.128
same,glycan array binding signal (z-score),[18],0.469
same,glycan array binding signal (z-score),[19],-0.692
same,glycan array binding signal (z-score),[20],0.138
same,glycan array binding signal (z-score),[21],-0.698
same,glycan array binding signal (z-score),GlcNAc(b1-3)Fuc,-0.267
same,glycan array binding signal (z-score),GlcNAc(b1-3)Gal,-0.171
same,glycan array binding signal (z-score),[22],-0.695
same,glycan array binding signal (z-score),GlcNAc(b1-3)Gal(b1-4)Glc,-0.519
same,glycan array binding signal (z-score),[23],-0.493
same,glycan array binding signal (z-score),[24],0.123
same,glycan array binding signal (z-score),[25],-0.094
same,glycan array binding signal (z-score),[26],0.312
same,glycan array binding signal (z-score),[27],-0.426
same,glycan array binding signal (z-score),[28],0.464
same,glycan array binding signal (z-score),[29],0.39
same,glycan array binding signal (z-score),[30],0.67
same,glycan array binding signal (z-score),[31],0.091
same,glycan array binding signal (z-score),[32],-0.45
same,glycan array binding signal (z-score),[33],-0.655
same,glycan array binding signal (z-score),[34],-0.393
same,glycan array binding signal (z-score),[35],0.158
